# Reference: ChEMBL document CHEMBL4888484, “Replenishing the malaria drug discovery pipeline: Screening and hit evaluation of the MMV Hit Generation Library 1 (HGL1) against asexual blood stage Plasmodium falciparum ,using a nano luciferase reporter read-out” (2022)
# Screen size: about 150,000 compounds; about 540 (0.36%) showed an effect of 50% or more. This is one part of the list.
# Test system: Plasmodium falciparum
# Experiment: Primary screen in NF54 nanoGlo assay, in single point, at 2uM, 72h; a lower Z score goes with more inhibition
# Assay type: functional, Erythrocyte
# Conditions: timepoint 72 hour
Structure (SMILES),% Inhibition [%],Z score
CCC(C)(C)NC(=O)Nc1cccc(Cl)c1,-1,0.15
CN=C(NC)NCc1cc2c(s1)CCC2,-5,0.65
CC(C)(C)Oc1ccc(-c2nc3ccc(-c4ccc5c(c4)OCO5)cc3o2)cc1,-29,2.53
CC[C@](C)(O)COc1cccc(Oc2ccncn2)c1,-4,0.47
O[C@@H]1CCN(C2CCN(c3cccc(-c4ccco4)c3)CC2)C1,-3,0.4
COc1ncc(NS(=O)(=O)c2cccc(F)c2)c(N(C)C)n1,-9,1.64
CC1NCCCC1NS(=O)(=O)Cc1ccccc1Cl (configuration not stated),8,-1.04
CNc1nc(C(=O)NCc2cc(N3CCOCC3)ncn2)cs1,-2,0.34
CCC(CO)Nc1cc(NC2C3CCOC3C23CCC3)ncn1 (configuration not stated),-9,1.72
CC1CC(C)CN(S(=O)(=O)c2ccc(-c3nc4ccccc4s3)cc2)C1 (configuration not stated),-8,0.93
O=C(Nc1ccc2snnc2c1)N1CCOCC1,-12,2.06
CCc1nnc(COC(=O)c2ccc(S(=O)(=O)N3CCCC[C@@H]3C)cc2)o1,2,-0.24
COCCCC(=O)Nc1cc2c(=O)[nH]cnc2cc1F,-18,2.51
O=C(Cc1cncnc1)NCc1ccncc1OCC(F)(F)F,-12,1.5
CO[C@@H](CNC(=O)c1n[nH]c2c1CCC2)c1cccc(Cl)c1,-24,2.85
CCOc1ccccc1CN(CCN1CCCOCC1)C[C@H](C)O,-7,1.24
Cc1ccc(CN(CCO)c2ccc(C#N)cn2)o1,-6,1.18
Cc1ccccc1Cn1c(=O)c(C(=O)NCCN2CCOCC2)nn(-c2ccc(C(C)C)cc2)c1=O,-1,0.11
Cc1cc(C(=O)Nc2cccc3c2CCCC3)on1,-19,3.49
CC[C@H](C)n1nccc1NC(=O)c1ccc(N2CCOCC2)c(F)c1,-4,0.49
COc1ccc(NC(=O)N2C[C@@H]3CCCN3c3ccccc32)c(OC)c1,-2,0.23
O=C(N[C@H]1C[C@@H](c2cc(=O)[nH]cn2)C1)c1ncc(F)cc1F,-4,0.73

Structure (SMILES),% Inhibition [%],Z score
O=C(Cc1cnc2ccccc2c1)N1CCC[C@H]1CO,-12,1.75
CCn1cc(-c2cc(C(F)(F)F)nc(N3CCC[C@H](C)C3)n2)cn1,34,-3.9
CC1=C(CN2CC(=O)N[C@@H](C)C2)C(C)(C)CCC1,-14,1.86
Cc1oncc1C(=O)N1CCN(C(=O)c2cnn3ccccc23)CC1,14,-1.72
Cc1nc(-c2ccnc(-n3cnnc3)c2)n(C2CCCCC2)n1,-13,1.69
OC1CCCCC1CNc1nc(C(F)(F)F)ns1 (configuration not stated),-7,0.92
CN(CCC(C)(C)O)C(=O)c1sccc1Cl,5,-0.92
NC(=O)c1cc2c(cc1N1CCCC1)NC(=O)C[C@@H]2c1ccccn1,1,-0.1
Cc1ccc(-n2nnc(-c3nc(C)c(C(=O)NCc4ccccc4)s3)c2C)cc1C,7,-0.67
COc1cc(C)c(CN2CCN(C(=O)CO)CC2)c(C)n1,-4,0.63
CC(=O)N1CCN(C(=O)CC2CC3CCC2C3)CC1 (configuration not stated),38,-4.34
FC(F)(F)c1ccnc(Oc2ccc3ncccc3c2)n1,-14,1.84
CO[C@@H](CNC(=O)N1CCC(c2nc3ccccc3o2)CC1)c1ccc(F)cc1,-2,0.24
Nc1cc(-c2cccc3ccnn23)nc(N2CCCC2)n1,-11,1.39
CCNC(=NCc1cccc(OC(F)F)c1)NCC,-5,0.93
c1ccc([C@@H]2Cn3nc(-c4nc(-c5ccc6c(c5)OCO6)no4)cc3CO2)cc1,1,-0.09
O=c1c2nnsc2ncn1Cc1ccccc1Cl,5,-0.86
NC(=O)C1CCCCCC1NC(=O)c1n[nH]c(=O)c2ccccc12 (configuration not stated),3,-0.43
Cc1ncsc1CCS(N)(=O)=O,-3,0.44
CCc1nc(C#N)cc(N[C@@H]2C(=O)NCC2(C)C)n1,-1,0.1
COCCCN/C(=N\c1ccc(C(=O)O)cc1)N1CCN([C@@H](C)CC(C)C)CC1,-6,0.59
CC(=O)c1c[nH]c(C(=O)Nc2ccc(NC(=O)NCc3ccco3)cc2)c1,3,-0.36

Structure (SMILES),% Inhibition [%],Z score
Cc1c(NC(=O)c2cc3n(n2)[C@H](C(F)(F)F)C[C@H](c2ccco2)N3)c(=O)n(-c2ccccc2)n1C,-10,1.28
Cc1ccccc1[C@H]1C[C@@H](O)[C@@H](O)[C@@H]1NS(=O)(=O)c1ccc(Cl)cc1,-8,1.23
O=C(NCCS(=O)(=O)N1CCN(c2cccc(Cl)c2)CC1)C1CCCC1,18,-2.24
C[C@H](Oc1ccc(F)c(F)c1)c1nc(C2CCCC2)no1,-4,0.53
COc1cccc(F)c1NC(=O)NCCCc1nc[nH]n1,-2,0.33
Cn1nccc1-c1cncc(CNC(=O)Nc2ccccc2C(F)(F)F)c1,25,-3.31
CCN1CC2(CCN(C(=O)c3cc[nH]c3C)CC2)CC1=O,1,-0.12
Cc1[nH]c2ccccc2c1C(=O)COc1nnc(-c2ccccc2)c(-c2ccccc2)n1,-4,0.79
Cc1cc(C)cc(OCc2nnc(C(=O)Nc3cccc(C(=O)NC(C)C)c3)s2)c1,-14,1.43
COc1ccc(C[C@](C)(O)CNS(=O)(=O)c2cccs2)cc1,-8,1.37
CCN(CC)c1cc(CCC(=O)NCC2CC2)ccn1,5,-0.9
CC(C)(CC(=O)Nc1ccc2oc(C3CC3)nc2c1)C(=O)O,37,-4.72
O=C(C[n+]1ccc(/C=C/c2ccccc2)cc1)c1ccc2c(c1)OCCO2,-7,1.18
CCN1CCc2nc(-c3ccco3)nc(N(C)Cc3ncc[nH]3)c2CC1,6,-0.97
Cc1ccccc1-c1noc([C@@H]2CCCN2)n1,-7,1.34
NC(=O)c1coc(CNC(=O)c2nc3n(n2)CCCN3)c1,-7,1.05
c1ccc(-c2cc(-c3nccn3C[C@H]3COCCO3)on2)cc1,-18,2.07
CO[C@@H](C(=O)Nc1nccnc1C1CC1)c1ccc(F)cc1,-6,0.76
CC(C)(C)C(=O)Nc1cccc(Cl)c1,-16,2.65
CC(C)c1nnc(COc2ccccc2S(=O)(=O)NCC2CC2)o1,-3,0.35
CC(C)Oc1nc(-c2cccc(F)c2)n(-c2cccc(NC(=O)c3cccs3)c2)n1,0,-0.07
Cc1ccccc1C(=O)N[C@@H](N1CCCCCC1)C(Cl)(Cl)Cl,-2,0.18

Structure (SMILES),% Inhibition [%],Z score
Cc1nc(CNC2(c3ccc(F)cc3F)CCC2)no1,-2,0.22
CC(=O)Nc1ccc(Oc2ccc(-c3noc(/C=C/c4ccco4)n3)cc2)cc1,-8,0.95
CCC1C(=O)NCCN1C(=O)NCC(OC)c1ccccc1 (configuration not stated),-3,0.52
O=C(NC[C@H]1CN(Cc2ccccc2)CC12CCOCC2)N1CCCC1,4,-0.63
COCC1=CCN(C(=O)C2CCN(c3ccc(C)cn3)CC2)CC1,-13,1.99
CC(C)c1nccc(CN2CCc3[nH]cnc3[C@H]2c2c(F)cccc2F)n1,-2,0.32
O=C(Nc1ccc(Cl)cn1)OCC(F)(F)F,2,-0.39
Cc1ccsc1-c1nc(-c2ccc3[nH]c(=O)[nH]c3c2)cs1,-12,1.78
COc1ccc(-c2ccc3nc(-c4cc(F)cc(F)c4)oc3c2)c(OC)c1OC,23,-2.35
O=C(Cc1noc(Cc2ccc(F)cc2)n1)Nc1cccc(Cl)c1Cl,-12,1.1
COc1ccc(CNC(=O)CC2CCN(C(=O)c3cc4ccccc4[nH]3)CC2)c(OC)c1,-18,1.68
Cc1csc(N(CCc2ccccc2)C(=O)[C@H]2CCC(=O)N2)n1,-15,1.68
Cc1cc(C)cc(C(=O)N2CCN(S(=O)(=O)c3c(C)nn(C)c3C)CC2)c1,-5,0.64
C[C@@]1(O)COC2(CN(C(=O)C3(c4ccccc4)CCCC3)C2)C1,-9,1.35
O=C(O)C1(Oc2ccc(F)cc2)CCN(c2ncnc3[nH]ccc23)CC1,-6,1.19
Cc1ccc(-c2noc(CN3CCC4(CC3)NC(=O)NC4=O)n2)cc1,-9,1.23
COc1cccc(C(=O)N2CCC[C@@](F)(c3nc(C4CC4)no3)C2)c1,-15,1.96
CCc1cnc(C)nc1N1CC[C@H](C(C)(C)O)C1,-9,1.15
Cc1nc(CNS(=O)(=O)c2cccc(C(=O)N3CCCC3)c2)sc1C,-2,0.32
CCOC[C@H]1CCN(C(=O)Nc2ccncc2F)C1,-8,1.14
